Test results taken from the BET-seq Pho4 binding data (Le et al. 2018).
This is one part of the list. These are noisy estimates, calculated here from bound and input reads.

These sequences were tested against T1, Pho4 (S. cerevisiae) (UniProt P07270) (assay: relative binding free energy (BET-seq); higher = weaker binding). Details: reference: library average.
T1 sequence: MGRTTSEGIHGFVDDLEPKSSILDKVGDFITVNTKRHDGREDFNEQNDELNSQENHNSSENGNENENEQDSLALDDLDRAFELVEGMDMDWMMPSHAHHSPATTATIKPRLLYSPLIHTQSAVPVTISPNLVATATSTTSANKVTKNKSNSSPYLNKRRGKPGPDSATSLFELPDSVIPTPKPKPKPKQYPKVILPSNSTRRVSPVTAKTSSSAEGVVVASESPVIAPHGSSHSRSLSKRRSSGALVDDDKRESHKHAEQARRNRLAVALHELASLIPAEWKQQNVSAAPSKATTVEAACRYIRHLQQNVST

| Sequence | relative binding free energy [kcal/mol] |
| --- | --- |
| GGTCTCACGTGTAGGT | 0.23 |
| GTAGTCACGTGGTGGG | 0.1 |
| GTGGCCACGTGGTTTT | -0.03 |
| ATCCGCACGTGTGGGG | -0.14 |
| GGGAACACGTGTTGGC | 0.17 |
| TGCCGCACGTGTAGGG | -0.02 |
| AGTTACACGTGGTTCG | 0.03 |
| CTGCACACGTGGGGTG | -0.18 |
| TAGATCACGTGTTTAA | 0.08 |
| CAGTACACGTGGTTTA | 0.1 |
| TTTTACACGTGGATAG | 0.19 |
| TATTTCACGTGAATAG | 0.22 |
| CGGTGCACGTGGGCGG | -0.31 |
| GGCTACACGTGTGAGG | 0.21 |
| GTGCTCACGTGGGGGA | 0.17 |
| TTTAACACGTGAAATG | 0.26 |
| CTTCACACGTGTGGTT | 0.23 |
| TATAGCACGTGTTAGA | -0.07 |
| ATCTGCACGTGGTTAG | -0.18 |
| GAGGGCACGTGTGATG | 0.05 |
| TAAATCACGTGGTGTA | -0.07 |
| TTCATCACGTGGGTTC | 0.09 |
| GTCGGCACGTGTTAAT | 0.15 |

| Sequence | relative binding free energy [kcal/mol] |
| --- | --- |
| ACTGGCACGTGTTTTA | -0.18 |
| TCTTGCACGTGAGTGC | 0.3 |
| TTAAGCACGTGTTGAC | -0.01 |
| CTTATCACGTGGTTTG | 0.05 |
| TGTGTCACGTGCTAGG | 0.04 |
| TCGCTCACGTGTGGGG | 0.12 |
| TGATACACGTGGATCG | 0.17 |
| TTAATCACGTGGGAGT | 0.1 |
| GTATTCACGTGGCGGT | 0.23 |
| TAAGCCACGTGGTGTA | -0.18 |
| TCATTCACGTGTGAGG | 0.44 |
| AATATCACGTGCGGGT | 0.09 |
| TCTATCACGTGAGGTA | 0.29 |
| AAGTTCACGTGAGTAT | 0.22 |
| AGAGGCACGTGGGAGT | -0.24 |
| GATGGCACGTGGGGTA | -0.19 |
| ATGACCACGTGGTGTT | -0.07 |
| TTTTCCACGTGAAAGT | 0.36 |
| TTTATCACGTGCGTGT | 0.12 |
| AAGACCACGTGGGGTT | -0.12 |
| TGGCGCACGTGGTCGG | -0.31 |
| GTGGTCACGTGGTTTG | 0.16 |
| TGCTGCACGTGATGGA | 0.09 |

| Sequence | relative binding free energy [kcal/mol] |
| --- | --- |
| GTTTCCACGTGGTGGT | 0.05 |
| CTGTGCACGTGTTTGA | 0.04 |
| GTTTACACGTGGTTAT | 0.1 |
| AAGTCCACGTGTTTTT | 0.15 |
| TGTCACACGTGTGCAG | 0.14 |
| CTTGTCACGTGTGGAG | 0.12 |
| TATGTCACGTGGGTCT | -0.09 |
| GTCATCACGTGGGTAG | 0.02 |
| GTAAGCACGTGTAGGT | 0.05 |
| AACGACACGTGGTGTG | 0.07 |
| TGAGACACGTGCGGGG | -0.19 |
| TTTAGCACGTGCTTTG | -0.15 |
| TGTACCACGTGGGTCG | -0.22 |
| TATGGCACGTGCGAGG | -0.14 |
| AGTGACACGTGGCCGG | -0.11 |
| CTGTTCACGTGAGTTT | 0.35 |
| GCGGGCACGTGCCGGG | -0.32 |
| GAAAGCACGTGCGGTG | 0.05 |
| AGTGGCACGTGTCTGC | -0.16 |
| TGAGGCACGTGTCGAT | 0.02 |
| ATTGTCACGTGACGAG | 0.26 |
| TTACTCACGTGAGGGA | 0.36 |
| GGTATCACGTGCGGCG | 0.08 |

| Sequence | relative binding free energy [kcal/mol] |
| --- | --- |
| GGGAGCACGTGGATGA | 0.05 |
| GGGAGCACGTGTCAGT | -0.15 |
| CAGGTCACGTGATGCG | 0.25 |
| TGCGCCACGTGATTGG | 0.08 |
| TGAATCACGTGGTTAA | 0.13 |
| GATGGCACGTGAGCTG | 0.27 |
| TATGGCACGTGCGCGT | -0.33 |
| TTTAACACGTGTTTGT | -0.05 |
| TGGAGCACGTGATTTG | 0.08 |
| TTCTTCACGTGTGGTC | 0.3 |
| AGTGACACGTGTGGGC | 0.08 |
| GTGCCCACGTGTGGTG | -0.12 |
| TGTTCCACGTGTTGGA | 0.09 |
| CTAGTCACGTGGCTGT | 0.06 |
| GGCGGCACGTGGTGGA | -0.02 |
| CTTTCCACGTGGGGTG | 0.02 |
| TAGATCACGTGGCAGG | 0.06 |
| TATTGCACGTGTGGCA | 0.04 |
| TGGGACACGTGCAGTA | -0.03 |
| TGAATCACGTGGTAAT | 0.17 |
| GTTTGCACGTGGTGCC | -0.1 |
| TTAAGCACGTGGGGGC | -0.21 |
| TCGTTCACGTGGGGGC | 0.16 |

| Sequence | relative binding free energy [kcal/mol] |
| --- | --- |
| TGTGACACGTGCTTAG | -0.13 |
| CAGGTCACGTGGGAGG | 0.07 |
| CTGATCACGTGTTTTA | 0.08 |
| ATTAACACGTGGAGCT | 0.07 |
| GTTGTCACGTGTGGAC | 0.24 |
| ACTGTCACGTGGGATA | 0.05 |
| TTGATCACGTGTTACT | 0.13 |
| ATAGACACGTGGGGTC | -0.17 |
| TTTAGCACGTGCTTGT | -0.15 |
| AATTGCACGTGGGTCT | -0.11 |
| TTGGTCACGTGGGCGC | -0.04 |
| GCCGGCACGTGATGGG | 0.06 |
| ACTGTCACGTGGTGGT | 0.03 |
| GTTCGCACGTGTGAAT | 0.09 |
| ACGGGCACGTGAAGGG | 0.17 |
| GTGCACACGTGCTGGT | -0.04 |
| GAAGTCACGTGGTGAA | 0.17 |
| GCTGGCACGTGGGGTT | -0.18 |
| GGCATCACGTGGTTGT | 0.09 |
| GTGTACACGTGGCTCG | 0.1 |
| GGTTACACGTGTGTCT | 0.23 |
| GGGAGCACGTGCGTGA | -0.05 |
| CTGTTCACGTGGTGCT | 0.23 |
